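In this assay, cells in 96-well plates receive the compound at five concentrations for 48 hours. Endpoints are linearly interpolated between the surrounding concentrations. At the GI50, growth is halved. TGI: concentration producing complete growth inhibition.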
These compounds were tested on NCI-H322M lung (assay: NCI-60 cell line screen, 48 h).

| Structure (SMILES) | TGI | GI50 |
| --- | --- | --- |
| C/C(=C/CC[C@]1(CO)CC[C@]2(C)[C@H](CC[C@@H]3[C@@]4(C)CC[C@H](OC5OC(CO)C(O)C(O)C5OC5OC(CO)C(O)C(O)C5O)C(C)(C)[C@@H]4CC[C@]32C)[C@H]1O)CO (stereo not given in full) | > 100 µM |  |
| CCn1c(CCl)nc2c1C(=O)c1ccccc1C2=O | 11.5 µM |  |
| COc1ccccc1C(=O)NCC1CCCN2CCCCC12 (stereo not given) | > 100 µM |  |
| CCCCCCCCCCCc1c(O)c(=O)c2c(oc3c(=O)c(CCCCCCCCCCC)c(O)c(=O)c3n2-c2ccc(N(C)C)cc2)c1=O | 91.4 µM |  |
| COC1(CC[C@@H](C)COC2OC(CO)C(O)C(O)C2O)O[C@H]2C[C@H]3[C@@H]4CC=C5C[C@@H](OC6OC(CO)C(O)C(OC7OC(CO)C(O)C(O)C7O)C6OC6OC(C)C(O)C(O)C6O)CC[C@]5(C)[C@H]4CC[C@]3(C)[C@H]2[C@@H]1C (stereo not given in full) | 13.5 µM |  |
| CC1=C(C)CC2(C=C(C(C)(C)C)C(=O)C(C(C)(C)C)=C2)SC1 | 86.2 µM |  |
| CC(=O)NC1=NC(=O)/C(=C/c2ccc(/C=C3/C(=O)N=C(NC(C)=O)N3C)cc2)N1C | > 100 µM |  |
| Cc1c2c(n(CC(c3ccccc3)c3ccccc3)c1C)NN=C(C#N)S2(=O)=O | > 100 µM |  |
| Cc1cc(O)c(C2=NN(c3ccc(S(N)(=O)=O)cc3)C(/C=C/c3ccccc3)C2)cc1Cl (stereo not given) | 27.5 µM | 5.73 µM |
| COC(=O)C(C(=O)OC)C(Br)C(Br)C(Br)c1ccccc1 (stereo not given) | 32 µM | 16.5 µM |
| O=C(/C(=C\I)c1ccccc1)c1ccccc1 | 17.7 µM |  |
| Cc1c2c(c(C)c3c1[nH]c1ccccc13)CN(C)CC2 | 49.7 µM |  |
| C/C(=N\NC(=S)N1CCCCCC1)c1cccc2cccnc12 | > 67 µM |  |
| N#Cc1cccc(C=NC23CC4CC(CC(C4)C2)C3)c1 | > 100 µM |  |
| C=C1C(=O)OC2CC(C)C3C4OC4C(O)C3(C)C(O)C12 (stereo not given) | 86.7 µM |  |
| C=C1C(=O)O[C@H]2C[C@@H]1[C@@H](O)[C@H](O)[C@@H](C)CCCC(C)=CCC[C@@]2(C)O | > 100 µM |  |
| CC1OC(CC(=O)O)CC2=C1C(=O)c1c(O)cccc1C2=O (stereo not given) | 3.02 µM |  |
| CC(C)=CC[C@]12CCN(C)[C@H]1N(S(=O)(=O)c1ccccc1)c1ccccc12 | > 100 µM |  |
| C[C@@H]1CC(=O)C[C@@H]2CC[C@H]3[C@@H]4CC[C@H](OC(=O)c5cccc6cc7ccccc7nc56)[C@H]4CC[C@@H]3[C@H]21 | > 100 µM |  |
| OC1(c2ccc(Cl)cc2)c2ccccc2-c2nc3ccccc3n21 (stereo not given) | > 100 µM |  |
| Cc1nc2sc(C(=O)c3ccc(Cl)cc3)c(N)c2c(-c2ccccc2Cl)c1C(=O)Nc1ccccc1 | 58.1 µM |  |
| NCCN1C(=O)c2ccccc2C1c1ccc(Cl)cc1 (stereo not given) | > 100 µM |  |
| c1ccc(OCc2nnc3n2N=C(c2ccccc2)CS3)cc1 | > 100 µM |  |

| Structure (SMILES) | TGI | GI50 |
| --- | --- | --- |
| CCCCOP(C)(=O)C(NC(=O)OCC)(C(F)(F)F)C(F)(F)F (stereo not given) | > 100 µM |  |
| COc1cc2c(/C=C3/C(=O)N(C)c4ccc(O)cc43)c(Cl)[nH]c2cc1C | 22.4 µM |  |
| CC1(C)OC2OC(C(COS(=O)(=O)C(F)(F)F)N=[N+]=[N-])C(OC(=O)c3ccccc3)C2O1 (stereo not given) | > 100 µM |  |
| CC(C)(C)N/N=C(\C(=O)NC1=C(Cl)C(=O)c2ccccc2C1=O)C1C=CCS1(=O)=O (stereo not given) | 31.3 µM |  |
| CC1(C)Cc2c(Br)c(Br)c(Br)c(OCC(O)CN3CCN(c4ccccn4)CC3)c2O1 (stereo not given) | 43.7 µM | 19.7 µM |
| OCCN(CCO)c1cccc(N(CCO)CCO)n1 | > 100 µM |  |
| CCSC[C@@H]1C[C@](O)(c2ccc(F)cc2)[C@@H](c2ccc(F)cc2)O1 | 39.4 µM | 20.4 µM |
| Nc1nc(N)c2nc3c(nc2n1)CCCCCCCCCC3 | > 100 µM | 0.827 µM |
| CC(=O)O[C@H]1CC[C@@]2(C)C(=C/C(=N/OCCN3CCCC3)[C@H]3[C@@H]4CC[C@H](OC(C)=O)[C@@]4(C)CC[C@@H]32)C1 | > 100 µM | 90.7 µM |
| COCCOCCOCc1n(Cc2ccc3ccccc3n2)c2ccccc2[n+]1Cc1ccc2ccccc2n1 | 37.7 µM | 3.91 µM |
| CCCCNc1ccc(Nc2ccccc2)cc1 | > 100 µM | 23.1 µM |
| C[C@@H](CO)NC(=O)c1cc(-c2ccc(Cl)cc2)nn(-c2cnn(C)c2)c1=O | > 100 µM | 29.5 µM |
| COc1cnc2c(c1)C(=O)c1c-2n(CCCN2CCC(O)CC2)c(=O)c2cc(Cl)ccc12 | 3.68 µM | 1.28 µM |
| COc1cccc(SSc2cccc(OC)c2C(=O)O)c1C(=O)O | > 100 µM |  |
| O=C(O)c1c(Br)c(Br)c(Br)c(Br)c1C1c2ccc(O)cc2Oc2cc(O)ccc21 | > 100 µM |  |
| C=Cn1c([N+](=O)[O-])cnc1/C=C/c1ccc(C(=O)OCCN2CCOCC2)cc1 | > 100 µM |  |
| CC(=O)c1ccc(NC(=O)C(=O)C(C#N)CC(C)(C)C=O)cc1 (stereo not given) | > 100 µM |  |
| CN(C)c1cccc(F)c1C(=O)NC(=O)Nc1ccc(Cl)cc1 | > 100 µM |  |
| COc1ccc(C2C(=O)c3c(OC)cc(OC)cc3OC2c2cccnc2)cc1 (stereo not given) | > 100 µM |  |
| CC1(C)O[C@@H]2C[C@H]3[C@@H]4C[C@H](F)C5=CC(=O)C=C[C@]5(C)[C@@]4(F)[C@@H](O)C[C@]3(C)[C@]2(C(=O)CO)O1 | > 100 µM |  |
| O=c1c2cc3c(cc2c2cccc4c2n1CCC4)OCO3 | > 100 µM |  |
| C#CCN(Cc1ccc2nc(-c3ccccc3)c(N)nc2c1)c1cc(OC)c(OC)c(OC)c1 | > 100 µM |  |
